Eleven molecules from patent US20210032313A1 (Daiichi Sankyo, published 2021) can be followed below.

Experiment [1] has as its target T1, human KLK5 (human, UniProt Q9Y337 67-293).
T1 sequence: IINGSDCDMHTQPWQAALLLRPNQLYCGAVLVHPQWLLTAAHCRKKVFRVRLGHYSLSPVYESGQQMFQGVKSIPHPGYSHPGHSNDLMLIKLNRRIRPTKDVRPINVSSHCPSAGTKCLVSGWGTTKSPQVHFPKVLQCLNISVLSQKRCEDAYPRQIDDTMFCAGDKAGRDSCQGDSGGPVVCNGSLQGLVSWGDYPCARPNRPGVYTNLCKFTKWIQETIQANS
In words: cell-based or functional assay.

The target of experiment [2] is T1, human KLK5. The experiment in a line: SPR, BIAcore T200; Fc fusion captured by anti-human IgG (Fc), KLK5 as analyte; single cycle kinetics, 1:1 model. The method, then: In order to measure the binding affinity of a KLK5 inhibitory peptide Fc fusion prepared in (5-2), which will be described below, surface plasmon resonance analysis was conducted using BIAcore T 200 (GE healthcare).
The KLK5 inhibitory peptide Fc fusion was captured at a flow rate of 20 μL/min by Sensor Chip CM5 (GE healthcare) on which an anti-human IgG (Fc) antibody was immobilized to immobilize about 30 to 50 RU. Thereafter, KLK5, serially diluted 2-fold with HBS-EP (0.625 to 10 nM), was added thereto as an analyte at a flow rate of 30 μL/min. In the BIAcore T 200 Evaluation software (version 2.0), kon and koff were calculated by analysis using Single cycle kinetics in a simple one-to-one Langmuir binding model. The dissociation constant KD was calculated as a ratio of koff/kₒₙ. Further, the binding activity of KLK5 to multiple KLK5 inhibitory peptide Fc fusions was measured by regenerating Sensor Chip CM5 on which the anti-human IgG (Fc) antibody was immobilized using a Regeneration buffer attached to a Human Antibody Capture Kit (GE healthcare) and repeatedly capturing the KLK5 inhibitory peptide Fc fusion.
Background: SPR reads the build-up and loss of mass on a sensor chip optically.

A further experiment concerns the target T2, mouse KLK5 (mouse).
T2 chain: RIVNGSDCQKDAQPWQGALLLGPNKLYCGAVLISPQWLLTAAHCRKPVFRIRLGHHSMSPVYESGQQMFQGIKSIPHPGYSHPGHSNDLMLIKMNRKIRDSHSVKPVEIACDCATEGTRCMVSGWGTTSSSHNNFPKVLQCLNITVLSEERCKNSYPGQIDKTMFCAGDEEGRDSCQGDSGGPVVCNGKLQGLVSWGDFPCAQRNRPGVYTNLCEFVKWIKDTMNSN
In words: cell-based or functional assay.

In a further experiment the target is mouse KLK7 (mouse, UniProt Q91VE3 26-249). In words: cell-based or functional assay.
A further experiment has as its target T3, mouse KLK14 (mouse, UniProt Q8CGR5 24-250).
T3 sequence: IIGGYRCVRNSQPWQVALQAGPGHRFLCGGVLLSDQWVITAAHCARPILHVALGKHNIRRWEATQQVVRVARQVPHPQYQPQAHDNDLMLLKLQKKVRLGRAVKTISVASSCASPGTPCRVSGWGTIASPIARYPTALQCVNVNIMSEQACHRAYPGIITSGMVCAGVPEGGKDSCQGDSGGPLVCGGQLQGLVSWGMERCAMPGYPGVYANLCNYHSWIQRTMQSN
The experiment in a line: cell-based or functional assay.

The target in the next experiment is T4, human KLK14 (human, UniProt Q9P0G3 25-251).
T4 sequence: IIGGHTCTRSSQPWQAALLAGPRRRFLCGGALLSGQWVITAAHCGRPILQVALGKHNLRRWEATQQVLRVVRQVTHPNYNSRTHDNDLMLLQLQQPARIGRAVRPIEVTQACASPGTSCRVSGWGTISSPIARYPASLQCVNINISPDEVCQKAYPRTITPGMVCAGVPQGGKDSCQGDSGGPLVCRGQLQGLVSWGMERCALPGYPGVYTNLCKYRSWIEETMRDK
In words: cell-based or functional assay.

In a further experiment the target is human KLK7 (human, UniProt P49862 30-253). In words: cell-based or functional assay.

Chain of mouse KLK7 (Q91VE3 26-249): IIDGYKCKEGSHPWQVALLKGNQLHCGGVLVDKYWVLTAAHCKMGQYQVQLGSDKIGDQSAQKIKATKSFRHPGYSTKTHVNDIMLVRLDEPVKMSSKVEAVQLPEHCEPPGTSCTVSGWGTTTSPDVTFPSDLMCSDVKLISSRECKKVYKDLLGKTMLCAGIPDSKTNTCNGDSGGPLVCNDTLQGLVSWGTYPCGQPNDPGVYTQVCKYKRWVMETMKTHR
Chain of human KLK7 (P49862 30-253): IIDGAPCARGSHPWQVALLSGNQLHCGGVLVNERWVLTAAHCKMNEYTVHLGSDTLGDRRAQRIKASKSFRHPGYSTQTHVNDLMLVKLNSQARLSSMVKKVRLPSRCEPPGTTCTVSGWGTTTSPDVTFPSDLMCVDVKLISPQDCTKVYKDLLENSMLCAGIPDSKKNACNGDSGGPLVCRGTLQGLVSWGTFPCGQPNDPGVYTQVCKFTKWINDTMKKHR

B1: KLK5/KLK14 inhibitory peptide Fc fusion D3-K50015-Fc (Fc fusion)
chain: DDDGPQFGLFSKYRTPNCYDTTTHYCSREYDPVCGSDMSTYANECTLCMKIREGGHNIKIIRNGPC[gap - human IgG1 Fc]
Broadly, the Kd is the concentration at which binding is half-saturated. The koff is a measure of how fast the partners let go of each other. As a reminder, the kon is the rate constant with which the complex forms. A lower kon goes with slow association. On to B1, for which the “IC50(nM) for hKLK5” value with human KLK5 [1] was determined as 3.1 nM. Moreover, in the experiment with human KLK5 [2], the Kd came to 0.00338 nM, the off-rate (koff) was determined as 3.52e-06 s⁻¹ and the kon came out at 1.04e+06 M⁻¹ s⁻¹. For the same molecule, the “IC50(nM) for mKLK5” value in the experiment with mouse KLK5 turned out to be 4.4 nM. Further, in the experiment with mouse KLK7, the “IC50(nM) for mKLK7” value amounted to 340 nM. Also, the “IC50(nM) for mKLK14” value with mouse KLK14 came to 48 nM.

B2: KLK5/KLK7 inhibitory peptide Fc fusion D3-K50031-Fc (Fc fusion)
chain: DDDGPQFGLFSKYRTPNCGEYKGRGCYYHYDPVCGSDMSTYANECTLCMKIREGGHNIKIIRNGPC[gap - human IgG1 Fc]
On to B2, for which the “IC50(nM) for hKLK14” value in the experiment with human KLK14 is over 1000 nM. Besides, the “IC50(nM) for hKLK5” value in the experiment with human KLK5 [1] stood at 9.5 nM. In the experiment with human KLK5 [2], this molecule gave a dissociation constant (Kd) of under 0.0114 nM, a koff of under 1e-06 s⁻¹ and an on-rate (kon) of 88100 M⁻¹ s⁻¹. Moreover, in the experiment with mouse KLK5, the “IC50(nM) for mKLK5” value is 270 nM. For the same molecule, the “IC50(nM) for mKLK7” value in the experiment with mouse KLK7 amounted to 6.3 nM. In addition, the “IC50(nM) for mKLK14” value in the experiment with mouse KLK14 was 300 nM.

B3: KLK5 inhibitory peptide Fc fusion D3-K50098dN-Fc (Fc fusion)
chain: DDDGPQFGLFSKYRTPNCGSQTLGSCSREYDPVCGSDMSTYANECTLCMKIREGGHNIKIIRNGPC[gap - human IgG1 Fc]
Regarding B3, the “IC50(nM) for hKLK14” value in the experiment with human KLK14 was 210 nM. Also, in the experiment with human KLK5 [1], the “IC50(nM) for hKLK5” value was determined as 4.3 nM. Besides, in the experiment with human KLK5 [2], the dissociation constant Kd was under 0.00176 nM, the off-rate constant (koff) is under 1.62e-06 s⁻¹ and the on-rate (kon) turned out to be 922000 M⁻¹ s⁻¹. Also, the “IC50(nM) for mKLK5” value with mouse KLK5 is 6.8 nM. For the same molecule, the “IC50(nM) for mKLK7” value with mouse KLK7 was over 1000 nM. Further, the “IC50(nM) for mKLK14” value with mouse KLK14 was 350 nM.

B4: KLK5 inhibitory peptide Fc fusion D3-K50062-Fc (Fc fusion)
chain: DDDGPQFGLFSKYRTPNCQQYRELGCGRQYDPVCGSDMSTYANECTLCMKIREGGHNIKIIRNGPC[gap - human IgG1 Fc]
Regarding B4, the “IC50(nM) for hKLK14” value with human KLK14 turned out to be 190 nM. Moreover, in the experiment with human KLK5 [1], the “IC50(nM) for hKLK5” value turned out to be 4.3 nM. In addition, in the experiment with human KLK5 [2], the affinity, expressed as Kd, was 0.0115 nM; the koff stood at 6.52e-06 s⁻¹; the on-rate constant (kon) came out at 566000 M⁻¹ s⁻¹. Further, the “IC50(nM) for mKLK5” value with mouse KLK5 turned out to be 5.4 nM. In addition, the “IC50(nM) for mKLK7” value with mouse KLK7 was over 1000 nM. The “IC50(nM) for mKLK14” value in the experiment with mouse KLK14 is over 1000 nM.

B5: KLK5 inhibitory peptide Fc fusion D3-K51034-Fc (Fc fusion)
chain: DDDGPQFGLFSKYRTPNCGRYTTGGCNKEYEPVCGSDMSTYANECTLCMKIREGGHNIKIIRNGPC[gap - human IgG1 Fc]
For the molecule B5, in the experiment with human KLK14, the “IC50(nM) for hKLK14” value is 960 nM. The “IC50(nM) for hKLK5” value with human KLK5 [1] stood at 5.7 nM. For the same molecule, in the experiment with human KLK5 [2], binding was put at a Kd of 0.0103 nM, the koff turned out to be 2.93e-06 s⁻¹ and the on-rate constant (kon) was 283000 M⁻¹ s⁻¹. In addition, the “IC50(nM) for mKLK5” value in the experiment with mouse KLK5 was 39 nM. Besides, the “IC50(nM) for mKLK7” value with mouse KLK7 is over 1000 nM. The “IC50(nM) for mKLK14” value with mouse KLK14 is over 1000 nM.

B6: KLK5/KLK7 inhibitory peptide Fc fusion D3-K51005-Fc (Fc fusion)
chain: DDDGPQFGLFSKYRTPNCMQHARQGCHYDYDPVCGSDMSTYANECTLCMKIREGGHNIKIIRNGPC[gap - human IgG1 Fc]
Take B6: the “IC50(nM) for hKLK7” value with human KLK7 was 28 nM. Besides, in the experiment with human KLK5 [1], the “IC50(nM) for hKLK5” value is 8.6 nM. In the experiment with human KLK5 [2], this molecule yielded a dissociation constant (Kd) of 0.133 nM, a dissociation rate constant (koff) of 1.96e-05 s⁻¹ and an on-rate (kon) of 147000 M⁻¹ s⁻¹. For the same molecule, the “IC50(nM) for mKLK5” value with mouse KLK5 was found to be 330 nM. Further, the “IC50(nM) for mKLK7” value with mouse KLK7 was determined as 37 nM. Further, the “IC50(nM) for mKLK14” value with mouse KLK14 was 240 nM.

B7: KLK5 inhibitory peptide Fc fusion D3-K51090-Fc (Fc fusion)
chain: DDDGPQFGLFSKYRTPNCDEIGKYGCGRSYDPVCGSDMSTYANECTLCMKIREGGHNIKIIRNGPC[gap - human IgG1 Fc]
Consider B7, for which, in the experiment with human KLK14, the “IC50(nM) for hKLK14” value was determined as 350 nM. The “IC50(nM) for hKLK5” value with human KLK5 [1] worked out at 4.6 nM. Besides, in the experiment with human KLK5 [2], the dissociation constant (Kd) came to 0.0112 nM, the dissociation rate constant (koff) was found to be 7.86e-06 s⁻¹ and the kon came to 700000 M⁻¹ s⁻¹. In addition, in the experiment with mouse KLK5, the “IC50(nM) for mKLK5” value turned out to be 5.1 nM. The “IC50(nM) for mKLK7” value in the experiment with mouse KLK7 was found to be 730 nM. The “IC50(nM) for mKLK14” value with mouse KLK14 worked out at 510 nM.

B8: KLK5/KLK7 inhibitory peptide Fc fusion D3-K51028-Fc (Fc fusion)
chain: DDDGPQFGLFSKYRTPNCYQYRSKGCTHEYDPVCGSDMSTYANECTLCMKIREGGHNIKIIRNGPC[gap - human IgG1 Fc]
For B8, the “IC50(nM) for hKLK7” value with human KLK7 amounted to 220 nM. Also, the “IC50(nM) for hKLK5” value in the experiment with human KLK5 [1] is 4.5 nM. In the experiment with human KLK5 [2], this molecule yielded a dissociation constant Kd of 0.00335 nM, a koff of 1.81e-06 s⁻¹ and an on-rate (kon) of 539000 M⁻¹ s⁻¹. Also, the “IC50(nM) for mKLK5” value in the experiment with mouse KLK5 was found to be 16 nM. Further, in the experiment with mouse KLK7, the “IC50(nM) for mKLK7” value was 110 nM. For the same molecule, in the experiment with mouse KLK14, the “IC50(nM) for mKLK14” value was over 1000 nM.

B9: KLK5/KLK14 inhibitory peptide Fc fusion D3-K51069dN-Fc (Fc fusion)
chain: DDDGPQFGLFSKYRTPNCGQVVETYCNRDYDPVCGSDMSTYANECTLCMKIREGGHNIKIIRNGPC[gap - human IgG1 Fc]
In the case of B9, the “IC50(nM) for hKLK7” value in the experiment with human KLK7 was over 1000 nM. Further, the “IC50(nM) for hKLK14” value in the experiment with human KLK14 amounted to 42 nM. Further, the “IC50(nM) for hKLK5” value with human KLK5 [1] came to 4.5 nM. In the experiment with human KLK5 [2], this molecule came in with a Kd of 0.00393 nM, a koff of 2.81e-06 s⁻¹ and an association rate constant (kon) of 714000 M⁻¹ s⁻¹. In addition, the “IC50(nM) for mKLK5” value in the experiment with mouse KLK5 worked out at 6.8 nM. Further, in the experiment with mouse KLK7, the “IC50(nM) for mKLK7” value worked out at 410 nM. For the same molecule, in the experiment with mouse KLK14, the “IC50(nM) for mKLK14” value came out at 24 nM.

B10: KLK5/KLK7 inhibitory peptide Fc fusion D3-K51057-Fc (Fc fusion)
chain: DDDGPQFGLFSKYRTPNCGTMQGSGCTYHYEPVCGSDMSTYANECTLCMKIREGGHNIKIIRNGPC[gap - human IgG1 Fc]
On to B10, for which the “IC50(nM) for hKLK7” value with human KLK7 was found to be 18 nM. Further, the “IC50(nM) for hKLK14” value in the experiment with human KLK14 is over 1000 nM. Also, the “IC50(nM) for hKLK5” value with human KLK5 [1] came to 12 nM. Further, in the experiment with human KLK5 [2], binding was characterised by a dissociation constant (Kd) of 0.206 nM, the off-rate (koff) was determined as 1.79e-05 s⁻¹ and the kon was 86900 M⁻¹ s⁻¹. The “IC50(nM) for mKLK5” value with mouse KLK5 was 600 nM. The “IC50(nM) for mKLK7” value with mouse KLK7 came out at 24 nM. Further, in the experiment with mouse KLK14, the “IC50(nM) for mKLK14” value stood at 380 nM.

B11: KLK5 inhibitory peptide Fc fusion D1-K50055-Fc (Fc fusion)
chain: DGPQFGLFSKYRTPNCANTMKQDCTREYDPVCGSDMSTYANECTLCMKIREGGHNIKIIRNGPC[gap - human IgG1 Fc]
Take B11: the “IC50(nM) for hKLK14” value with human KLK14 is over 1000 nM. Also, the “IC50(nM) for hKLK5” value in the experiment with human KLK5 [1] is 5.8 nM. In the experiment with mouse KLK5, the “IC50(nM) for mKLK5” value was 6.3 nM. Moreover, the “IC50(nM) for mKLK7” value with mouse KLK7 was over 1000 nM. Also, the “IC50(nM) for mKLK14” value with mouse KLK14 is over 1000 nM.
